Measurements: patent US20110319597A1 (CAPHALON AUSTRALIA, published 2011)

What follows are binders tested against T1, recombinant human TNFα (CytoLab) (human, UniProt P01375 partial chain) (assay: ELISA on coated human TNFα).
T1 construct: coated on the ELISA plate at 1 µg/ml; also called Tumour necrosis factor alpha
T1 sequence (P01375 77-233 limits assumed): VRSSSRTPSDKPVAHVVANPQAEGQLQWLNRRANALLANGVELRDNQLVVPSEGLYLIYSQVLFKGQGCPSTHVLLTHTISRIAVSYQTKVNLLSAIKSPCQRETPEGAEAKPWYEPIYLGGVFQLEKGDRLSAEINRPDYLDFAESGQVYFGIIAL

Binder	A450 (AU)
TNFα dAb Fc variant K45P (Fc fusion, name in Kabat numbering) DIQMTQSPSSLSASVGDRVTITCRASQAIDSYLHWYQQKPGKAPPLLIYSASNLETGVPSRFSGSGSGTDFTLTISSLLPEDFATYYCQQVVWRPFTFGQGTKVEIKRV[human IgG1 Fc with changes left out]	0.191
TNFα dAb Fc variant L47A (Fc fusion, name in Kabat numbering) DIQMTQSPSSLSASVGDRVTITCRASQAIDSYLHWYQQKPGKAPKLAIYSASNLETGVPSRFSGSGSGTDFTLTISSLLPEDFATYYCQQVVWRPFTFGQGTKVEIKRV[human IgG1 Fc with changes left out]	0.257
TNFα dAb Fc variant L46A (Fc fusion, name in Kabat numbering) DIQMTQSPSSLSASVGDRVTITCRASQAIDSYLHWYQQKPGKAPKALIYSASNLETGVPSRFSGSGSGTDFTLTISSLLPEDFATYYCQQVVWRPFTFGQGTKVEIKRV[human IgG1 Fc with changes left out]	0.185
TNFα dAb Fc variant L47D (Fc fusion, name in Kabat numbering) DIQMTQSPSSLSASVGDRVTITCRASQAIDSYLHWYQQKPGKAPKLDIYSASNLETGVPSRFSGSGSGTDFTLTISSLLPEDFATYYCQQVVWRPFTFGQGTKVEIKRV[human IgG1 Fc with changes left out]	0.215
TNFα dAb Fc variant L46Y (Fc fusion, name in Kabat numbering) DIQMTQSPSSLSASVGDRVTITCRASQAIDSYLHWYQQKPGKAPKYLIYSASNLETGVPSRFSGSGSGTDFTLTISSLLPEDFATYYCQQVVWRPFTFGQGTKVEIKRV[human IgG1 Fc with changes left out]	0.256
TNFα dAb Fc variant L46D (Fc fusion, name in Kabat numbering) DIQMTQSPSSLSASVGDRVTITCRASQAIDSYLHWYQQKPGKAPKDLIYSASNLETGVPSRFSGSGSGTDFTLTISSLLPEDFATYYCQQVVWRPFTFGQGTKVEIKRV[human IgG1 Fc with changes left out]	0.191
TNFα dAb Fc variant L46H (Fc fusion, name in Kabat numbering) DIQMTQSPSSLSASVGDRVTITCRASQAIDSYLHWYQQKPGKAPKHLIYSASNLETGVPSRFSGSGSGTDFTLTISSLLPEDFATYYCQQVVWRPFTFGQGTKVEIKRV[human IgG1 Fc with changes left out]	0.166
TNFα dAb Fc variant L46P (Fc fusion, name in Kabat numbering) DIQMTQSPSSLSASVGDRVTITCRASQAIDSYLHWYQQKPGKAPKPLIYSASNLETGVPSRFSGSGSGTDFTLTISSLLPEDFATYYCQQVVWRPFTFGQGTKVEIKRV[human IgG1 Fc with changes left out]	0.179
TNFα dAb Fc variant L46K (Fc fusion, name in Kabat numbering) DIQMTQSPSSLSASVGDRVTITCRASQAIDSYLHWYQQKPGKAPKKLIYSASNLETGVPSRFSGSGSGTDFTLTISSLLPEDFATYYCQQVVWRPFTFGQGTKVEIKRV[human IgG1 Fc with changes left out]	0.243
TNFα dAb Fc variant L46Q (Fc fusion, name in Kabat numbering) DIQMTQSPSSLSASVGDRVTITCRASQAIDSYLHWYQQKPGKAPKQLIYSASNLETGVPSRFSGSGSGTDFTLTISSLLPEDFATYYCQQVVWRPFTFGQGTKVEIKRV[human IgG1 Fc with changes left out]	0.234
TNFα dAb Fc variant L46S (Fc fusion, name in Kabat numbering) DIQMTQSPSSLSASVGDRVTITCRASQAIDSYLHWYQQKPGKAPKSLIYSASNLETGVPSRFSGSGSGTDFTLTISSLLPEDFATYYCQQVVWRPFTFGQGTKVEIKRV[human IgG1 Fc with changes left out]	0.171
